# System: Male adult Wistar rats
# Conditions: 30 min after 40 μg i.c.v. propafenone, no opioid; n=8; baseline TFL 2.96+0.12 sec, no significant difference
structure (smiles),measurement,value
CCCNCC(O)COc1ccccc1C(=O)CCc1ccccc1 (stereo not shown) [propafenone],tail-flick latency (TFL) after inhibitor alone (mean+SEM),2.75+0.23 sec

# — PMC3687523 (Biochemical pharmacology, 2013)
